From PubChem BioAssay AID1625 (Sanford-Burnham Center for Chemical Genomics, 2009) come the findings set out here.

This is one part of the list. Shown are side measurements of this screen, not its main read-out; they come without a call. Most of these compounds were active or inconclusive in the main read-out, so they are no random draw.

The nature of the test: insulin promoter activators in MIN6 cells, imaging, high-content screening, mouse beta cells (AID 1625).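 Further: total cells summed across four imaged fields per well.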 Conditions: MIN6 insulin promoter-GFP reporter, measured here: cytotoxicity, nuclei count, at 5 µM.
Molecule `FC(F)(F)c1ccc2c(c1)N(CCCN1CCN(CCCl)CC1)c1ccccc1S2` came in with a cell count of 458 cells.
For `CCOc1ccc(-c2c(C)n(-c3ccc(OCC)cc3)c3[n+]2CCCCC3)cc1`, the cell count was found to be 272 cells.
`CCCCCCn1c(O)c(C=Nc2ccccc2N2CCOCC2)c(=O)[nH]c1=S` yielded a cell count of 1030 cells.
In turn, `Cc1ccccc1NC1=NCC(C)S1` (centres undefined) gave a cell count of 440 cells.
In turn, `Cc1nc2cc(C(F)(F)F)ccc2n1C1CCN(Cc2nnnn2CCc2ccccc2)CC1` came in with a cell count of 383 cells.
Then `CCN(CC)C1=NC(=[N+](CC)CC)c2ccccc21`, with 443 cells.
Molecule `CCn1nc(-c2cccs2)nc2c(=O)n(C)c(=O)nc1-2` displayed a cell count of 469 cells.
As for `C=CCN1C(=O)/C(=C\c2ccc(N3CCOCC3)o2)C(=O)NC1=S`, the cell count came to 1270 cells.
With `Nc1cc2nc3ccccc3nc2cc1N`, the cell count was determined as 1360 cells.
`Nc1c([N+](=O)[O-])cc(F)c(N2CCNCC2)c1Br` gave a cell count of 490 cells.
Next, `Cc1cc2c(C(F)(F)F)cc(=O)oc2c2c1NCCC2`: 1580 cells; `N=c1c2c(n(Cc3ccc(Cl)cc3Cl)c3c1CCC3)CCCC2`: 348 cells.
`COc1cc2c(cc1OC)[C@@H]1C(=O)c3ccc4c(c3O[C@@H]1CO2)C[C@H](C(C)C)O4`: the cell count is 477 cells.
Then `CCn1nc(-c2ccccc2)nc2c(=O)n(C)c(=O)nc1-2`, with 322 cells; and `CN1CC=C2C(C#N)=C(N)C(C#N)(C#N)C(c3ccncc3)C2C1` (centres undefined), with 1110 cells; and `CCOC(=O)C1C(=O)NC2(C)CC1c1cc(OC)ccc1O2` (centres undefined), with 305 cells.
Then `CCCCCCCCCOc1ccc2[nH]cc(CCN)c2c1`, with 341 cells; and `CN(C)c1ccc(-[n+]2c(-c3ccccc3)cc(-c3ccccc3)cc2-c2ccccc2)cc1`, with 315 cells; and `CN1/C(=C\C=C\C2=[N+](C)c3ccc4ccccc4c3C2(C)C)C(C)(C)c2ccccc21`, with 208 cells.
Next, `CC(=O)OC[C@]12CCC(C)=C[C@H]1O[C@@H]1[C@H](O)[C@@H](OC(C)=O)[C@@]2(C)[C@]12CO2`: 242 cells; `COc1ccc(CC(=O)N2CCN(C)CC2)cc1`: 1500 cells.
`CN1C(=O)C(=Cc2ccc(N3CCCCC3)o2)C(=O)N(C)C1=S` showed a cell count of 1420 cells.
Next, `CC1CCCC(C2(O)C(=O)Nc3ccccc32)C1=O` (centres undefined): 1330 cells.
Then `CN=C(SCc1cc2c(cc1Cl)OCO2)c1c(O)n(C)c(=O)n(C)c1=O`, with 420 cells; and `Cc1nc2nc(SCC(=O)N3CCC4(CC3)OCCO4)nn2c(C)c1Cc1ccccc1`, with 360 cells; and `CC1=CC(=Cc2sc3ccccc3[n+]2C)C=C(C)O1`, with 267 cells.
`O=C(/C=C/c1c[nH]c2ccccc12)c1c(O)n(CCc2ccccc2)c(=O)[nH]c1=O` showed a cell count of 1170 cells.
`CCCCn1c(O)c(C(=O)/C=C/c2c[nH]c3ccccc23)c(=O)[nH]c1=O` displayed a cell count of 904 cells.
Regarding `Cc1cc(OC(=O)c2ccco2)c2c3c(c(=O)oc2c1)CCCC3`, the cell count came out at 367 cells.
